Laboratory results published in PubChem BioAssay AID624417 (National Center for Advancing Translational Sciences (NCATS), 2012).
Out of some 410,000 compounds screened, about 6,400 (1.6%) were called active. Inconclusive results, whose numbers are uncertain, are shown with a selection of clear calls. The call rests on the fitted dose curve; in most records, active means well fitted inhibition curve with a large enough effect; inconclusive means small, poorly fitted or top-dose-only effect; inactive means no such curve, though single readings can be large or run the other way. Where the call is inconclusive, the potency comes from a doubtful curve fit.

target: Glucagon-like peptide 1 receptor (Homo sapiens) (UniProt P43220); test: qHTS of GLP-1 Receptor Inverse Agonists (Inhibition Mode); conditions: HEK293 GLP-1R CRE-luciferase, luminescence, 24 h; Potency: GLP-1R form is constitutively active unless noted; activity change, negative = inhibition: at 38.3 µM (top of the series) unless noted; further: nearly all actives have a fitted effect of over 55% in size
UniProt P43220, sequence (P43220 whole entry, looked up): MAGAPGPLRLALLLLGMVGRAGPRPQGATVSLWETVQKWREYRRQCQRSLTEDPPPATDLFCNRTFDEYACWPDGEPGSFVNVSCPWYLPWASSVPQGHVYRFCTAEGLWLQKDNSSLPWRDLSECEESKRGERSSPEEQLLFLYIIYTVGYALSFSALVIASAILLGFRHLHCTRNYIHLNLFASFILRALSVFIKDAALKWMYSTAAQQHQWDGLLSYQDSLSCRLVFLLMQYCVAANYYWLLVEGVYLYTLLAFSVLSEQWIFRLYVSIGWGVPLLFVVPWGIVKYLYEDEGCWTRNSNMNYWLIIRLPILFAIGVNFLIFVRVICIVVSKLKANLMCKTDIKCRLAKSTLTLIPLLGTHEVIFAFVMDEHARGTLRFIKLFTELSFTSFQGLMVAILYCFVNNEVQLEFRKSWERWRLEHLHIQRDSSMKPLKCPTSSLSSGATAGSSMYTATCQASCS
Method in brief: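 Constitutively active GLP-1R drives a cAMP-responsive luciferase in stably transfected HEK293 cells; test compounds are added after overnight (12 h) attachment and left 24 hr, and signal loss in luminescence marks inhibition.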
On the % scale 0 is the no-effect control and ±100 the full control effect; potency means the concentration at half of the fitted maximal effect; tags describe the fitted curve by direction and shape.

| Compound | Potency | activity change, negative = inhibition |
| --- | --- | --- |
| CCC(C)N1CCN(C(=O)COc2ccc3ccccc3c2)CC1 (stereo unspecified) | inconclusive: 10 µM [inhibitor, partial curve, poor fit] |  |
| CCc1ccccc1NC(=O)CNCc1ccccc1 | inconclusive: 2.82 µM [inhibitor, full curve] |  |
| CCOC(=O)N(CC)c1ccc(C(O)(C(=O)OCC)C(F)(F)F)cc1 (stereo unspecified) | inconclusive: 28.2 µM [inhibitor, single point] |  |
| COc1cccc(OP(=O)(Nc2ccccc2)Oc2cccc(OC)c2)c1 | active: 10 µM |  |
| CCC(C(=O)Nc1ccccc1F)N1C(=O)CN=C(c2ccccc2)c2ccccc21 (stereo unspecified) | inconclusive: 5.62 µM [inhibitor, full curve, poor fit] |  |
| O=C(c1ccco1)c1cn(Cc2ccc(Cl)cc2)c2ccccc12 | inconclusive: 7.08 µM [inhibitor, partial curve, poor fit] |  |
| COc1ccc(C(c2nnnn2-c2ccc(OC)cc2)N2CCC3(CC2)C(=O)NCN3c2ccccc2)cc1 (stereo unspecified) | inconclusive: 28.2 µM [inhibitor, single point] |  |
| COc1cccc(C2CCN(CC(=O)Nc3cc(Cl)ccc3OC)CC2O)c1 (stereo unspecified) |  | inconclusive: -34.8% [inhibitor] [at 38.3 µM, GLP-1R form is constitutively active] |
| COC(=O)C1=C(c2ccc(OCc3ccccc3)cc2)C[C@@H]2CC[C@H]1N2C | inconclusive: 11.2 µM [inhibitor, partial curve, poor fit] |  |
| CCc1ccc(-n2nc(C)c3c2NC(=O)CSC3c2ccc(OC)cc2OC)cc1 (stereo unspecified) | inconclusive: 11.2 µM [inhibitor, partial curve, poor fit] |  |
| O=C(COc1ccc(S(=O)(=O)N2CCOCC2)cc1)N1CCN(Cc2ccc3c(c2)OCO3)CC1 |  | inactive: 0% |
| COc1ccc(NC(c2ccccc2F)P(=O)(Oc2ccccc2)Oc2ccccc2)cc1 (stereo unspecified) | inconclusive: 11.2 µM [inhibitor, partial curve, poor fit] |  |
| CCOP(=O)(Nc1ccc2c(c1)C(=NNC(N)=S)c1ccccc1-2)OCC | inconclusive: 28.2 µM [inhibitor, single point] |  |
| CCCCOP(=O)(OCCCC)C(Nc1ccc(C(=O)OCC)cc1)c1ccncc1 (stereo unspecified) | inconclusive: 10 µM [inhibitor, partial curve, poor fit] |  |
| CC1CC(C)CN(S(=O)(=O)c2ccc3c(c2)oc(=O)n3CC(=O)NCc2cccnc2)C1 (stereo unspecified) | inconclusive: 3.55 µM [inhibitor, partial curve, poor fit] |  |
| COc1ccc(NC(=O)Nc2ccc3c(c2)C(=O)N([C@H](C)CO)C[C@H](C)[C@@H](CN(C)Cc2ccc(Cl)c(Cl)c2)OCCCC[C@@H](C)O3)cc1 | active: 3.16 µM |  |
| NC(=Nc1ccccc1)NN=Cc1c[nH]c2ccccc12 | inconclusive: 1 µM [inhibitor, full curve, poor fit] |  |
| CCOc1ccc(CCNC(=O)c2cc3c(-c4cccc(OC)c4)nn(C)c3s2)cc1OCC | inconclusive: 8.91 µM [inhibitor, partial curve] |  |
| CCOC(=O)c1ccc(NC(=O)c2cccn(Cc3ccccc3F)c2=O)cc1 | inconclusive: 1 µM [inhibitor, full curve, poor fit] |  |
| O=[N+]([O-])c1ccc(-c2ccccc2)c([As](=O)(O)O)c1 | inconclusive: 7.94 µM [inhibitor, partial curve, poor fit] |  |
| CCCCOP(=O)(OCCCC)C(O)c1ccc(F)cc1 (stereo unspecified) | inconclusive: 3.16 µM [inhibitor, partial curve, poor fit] |  |

| Compound | Potency | activity change, negative = inhibition |
| --- | --- | --- |
| CN1CCc2cccc(Cl)c2CC1 |  | inactive: -3.92% |
| CCOC(=O)C1(c2ccccc2)CCN(CC(=O)Nc2cccc3ccccc23)CC1 | inconclusive: 8.91 µM [inhibitor, partial curve] |  |
| CC(C)(C)NC(=O)N1c2ccccc2Sc2ccccc21 | inconclusive: 12.6 µM [inhibitor, partial curve, poor fit] |  |
| Cc1cc(C=C2C(=O)NC(=O)NC2=O)c(C)n1-c1ccc2c(c1)OCO2 | inconclusive: 28.2 µM [inhibitor, single point] |  |
| O=c1c2ccccc2nc(-c2ccccc2Cl)n1-c1ccc(O)cc1 |  | inconclusive: -65.5% [inhibitor] [at 38.3 µM, GLP-1R form is constitutively active] |
| CC(C)C/C(=N/O)c1cn(C)c2ccccc12 | inconclusive: 28.2 µM [inhibitor, single point] |  |
| Cc1cccc(NC(=O)CN2CCN(C(=O)COc3cccc(Br)c3)CC2)c1C | inconclusive: 28.2 µM [inhibitor, single point] |  |
| CC(=O)c1ccc(NC2=NCCCS2)cc1 |  | inactive: 8.06% |
| Nc1cc(Cl)c2nonc2c1[N+](=O)[O-] | inconclusive: 28.2 µM [inhibitor, single point] |  |
| CCOc1cc(C=C2C(=O)NC(=O)NC2=O)ccc1OCC(=O)N1CCOCC1 |  | inactive: 21.5% |
| CSc1ccccc1C(=O)C1CCCN(Cc2ccccn2)C1 (stereo unspecified) |  | inactive: -24.3% |
| COc1ccc2cc1Oc1ccc(cc1)C[C@H]1c3cc(c(OC)cc3CCN1C)Oc1c(O)c(OC)cc3c1[C@H](C2)N(C)CC3 | inconclusive: 7.08 µM [inhibitor, partial curve, poor fit] |  |
| CCN(CC(=O)Nc1ccc(NC(C)=O)cc1)C(=O)CSC(c1ccccc1)c1ccccc1 | inconclusive: 7.94 µM [inhibitor, partial curve] |  |
| CC(C)c1ccc(NC(=O)Cn2c(=O)oc3cc(S(=O)(=O)N4CCCC4)ccc32)cc1 | inconclusive: 3.16 µM [inhibitor, full curve, poor fit] |  |
| CCCCCc1nc2c(c(=O)c3ccccc3n2C)c(=O)n1C1CCCCCC1 | inconclusive: 22.4 µM [inhibitor, single point] |  |
| CC(O)C1C=CC=CC(=O)OC2CC3OC4C5OC5(C)C(O)CC4(COC(=O)C(O)C(C)CCO1)C2(C)C31CO1 (stereo unspecified) | inconclusive: 0.562 µM [inhibitor, full curve, poor fit] |  |
| CC(C)OC(=O)c1c(N)n(CC2CCCO2)c2nc3ccccc3nc12 (stereo unspecified) | inconclusive: 31.6 µM [inhibitor, single point] |  |
| CCCCn1c(O)c(C(CC)=NCc2ccc(F)cc2)c(=O)[nH]c1=O | inconclusive: 28.2 µM [inhibitor, single point] |  |
| Nc1c(C(=O)NCc2ccco2)c2nc3ccccc3nc2n1CCN1CCCCC1 | inconclusive: 20 µM [inhibitor, single point] |  |
| O=C1C=CC2C3C(=O)N(c4ccccc4)C(=O)C3C1N2Cc1ccccc1 (stereo unspecified) | inconclusive: 28.2 µM [inhibitor, single point] |  |
| CCc1ccc(CNCCc2c[nH]c3ccccc23)cc1 | inconclusive: 10 µM [inhibitor, partial curve, poor fit] |  |

| Compound | Potency | activity change, negative = inhibition |
| --- | --- | --- |
| CCc1cc2c(=O)n(C(C)C(=O)OC3CCCCC3)cnc2s1 (stereo unspecified) | inconclusive: 28.2 µM [inhibitor, single point] |  |
| Cc1cc(N(CCCl)CCCl)ccc1/C=N/NC(=O)c1ccco1 |  | inactive: -42.4% |
| CN(C)c1ccc(C2CC(c3c(O)n(C4CCCCC4)c(=O)[nH]c3=O)=Nc3ccccc3S2)cc1 (stereo unspecified) | inconclusive: 2 µM [inhibitor, full curve] |  |
| CN(CC=CCN(C)P(=S)(N1CC1)N1CC1)P(=S)(N1CC1)N1CC1 |  | inactive: -20.7% |
| Oc1cc2c(cc1CN1CCN(c3ccc(F)cc3)CC1)OCO2 |  | inactive: -9.62% |
| COc1ccc(NP(=O)(Oc2ccc(Cl)cc2)Oc2ccc(Cl)cc2)cc1OC | inconclusive: 11.2 µM [inhibitor, partial curve, poor fit] |  |
| C[C@]12CCC3C(CC[C@H]4[C@H](O)[C@H](O)CC[C@]34C)C1CC[C@@H]2O (stereo partly specified) |  | inactive: 31.4% |
| CCCCCSc1cc(OC)c(CCN)cc1OC | inconclusive: 28.2 µM [inhibitor, single point] |  |
| CC(=O)[C@H]1CCC2C3CC[C@H]4C[C@@H](O)CC[C@]4(C)C3CC[C@@]21C (stereo partly specified) |  | inactive: -0.162% |
| Cc1ccc(-n2c(/C=C/c3ccccc3)nc3ccccc3c2=O)cc1Cl | inconclusive: 11.2 µM [inhibitor, partial curve, poor fit] |  |
| O=C(COC(=O)c1ccc(O)cc1)Nc1ccc(Cl)cc1C(=O)c1ccccc1 | inconclusive: 28.2 µM [inhibitor, single point] |  |
| Cc1ccc(OCC(=O)N2CCCC(N3CCN(c4ccc(F)cc4)CC3)C2)cc1 (stereo unspecified) | inconclusive: 31.6 µM [inhibitor, partial curve, poor fit] |  |
| CCOC(=O)c1ccc(N2C(=O)CC(N3CCC(O)(c4ccc(Br)cc4)CC3)C2=O)cc1 (stereo unspecified) | inconclusive: 28.2 µM [inhibitor, single point] |  |
| N#CC(C#N)=NNc1ccc(S(=O)(=O)N2CCCC2)cc1 | inconclusive: 1 µM [inhibitor, full curve, poor fit] |  |
| Cn1c(O)c(C(=Nc2ccc(F)cc2)c2ccccc2Cl)c(=O)n(C)c1=O |  | inactive: 15.9% |
| Cc1oc(-c2cccc(Cl)c2)nc1CN1CCC(C(=O)NCCCN2CCN(c3cccc(Cl)c3)CC2)CC1 | inconclusive: 2.82 µM [inhibitor, full curve] |  |
| COc1ccccc1-n1c(-c2ccccc2Cl)nc2ccccc2c1=O | inconclusive: 8.91 µM [inhibitor, partial curve, poor fit] |  |
| CN=C(SCc1cc2c(cc1Cl)OCO2)c1c(O)n(C)c(=O)n(C)c1=O | inconclusive: 8.91 µM [inhibitor, single point] |  |
| CCCCn1c(-c2nonc2NC(=O)c2ccccc2Cl)nc2ccccc21 | inconclusive: 1.26 µM [inhibitor, full curve] |  |
